# Laboratory results published in a collection of fitness landscapes (doi:10.1126/science.1257360).
# This is one part of the list.
# B1: PhoQ; a variant is named by its letters at X, in order, P23837 (parent)
# chain: MKKLLRLFFPLSLRVRFLLATAAVVLVLSLAYGMVALIGYSVSFDKTTFRLLRGESNLFYTLAKWENNKLHVELPENIDKQSPTMTLIYDENGQLLWAQRDVPWLMKMIQPDWLKSNGFHEIEADVNDTSLLLSGDHSIQQQLQEVREDDDDAEMTHSVAVNVYPATSRMPKLTIVVVDTIPVELKSSYMVWSWFIYVLSANLLLVIPLLWVAAWWSLRPIEALAKEVRELEEHNRELLNPATTRELTSLVRNLNRLLKSERERYDKYRTTLTDLTHSLKTPLXXLQXXLRSLRSEKMSVSDAEPVMLEQISRISQQIGYYLHRASMRGGTLLSRELHPVAPLLDNLTSALNKVYQRKGVNISLDISPEISFVGEQNDFVEVMGNVLDNACKYCLEFVEISARQTDEHLYIVVEDDGPGIPLSKREVIFDRGQRVDTLRPGQGVGLAVAREITEQYEGKIVAGESMLGGARMEVIFGRQHSAPKDE
# Variants of: B1
# Test: enrichment ratio after two sorts for PhoP signalling (ratio (wild type AVST 3.29)); higher = more functional
# Details: with PhoP (E. coli)
row,Variant,enrichment ratio
1,YVPW,≤ 0.25
2,MCYN,11.3
3,PQNW,≤ 0.25
4,SKCQ,6.54
5,RTDQ,≤ 0.25
6,MCGL,4.26
7,TWIV,≤ 0.25
8,ITRA,≤ 0.25
9,VGNI,≤ 0.25
10,SGCM,6.39
11,MRCT,≤ 0.25
12,IRYH,≤ 0.25
13,IPVN,≤ 0.25
14,TWTH,≤ 0.25
15,RFIS,≤ 0.25
16,IKTV,≤ 0.25
17,IARI,≤ 0.25
18,NRKA,≤ 0.25
19,HTWI,≤ 0.25
20,HSEQ,≤ 0.25
21,TEYA,2.3
22,TNGD,≤ 0.25
23,GILG,12.3
24,NTNN,≤ 0.25
25,MSIW,≤ 0.25
26,FGWE,≤ 0.25

row,Variant,enrichment ratio
1,FADE,≤ 0.25
2,KPNR,≤ 0.25
3,YPYW,≤ 0.25
4,KPIR,≤ 0.25
5,DRCY,≤ 0.25
6,KGLG,0.735
7,LWDE,≤ 0.25
8,VITC,≤ 0.25
9,QDGH,≤ 0.25
10,DVES,≤ 0.25
11,HPAQ,≤ 0.25
12,DSWV,≤ 0.25
13,PQWG,≤ 0.25
14,SPIP,≤ 0.25
15,YSFC,≤ 0.25
16,ILFM,≤ 0.25
17,PSMQ,≤ 0.25
18,YSEC,≤ 0.25
19,QLPL,≤ 0.25
20,EDMC,≤ 0.25
21,VHLN,≤ 0.25
22,EEAT,≤ 0.25
23,WKMY,≤ 0.25
24,THRR,≤ 0.25
25,GQDY,≤ 0.25
26,FWDN,≤ 0.25

row,Variant,enrichment ratio
1,SENI,4.6
2,LPVR,≤ 0.25
3,VNHT,≤ 0.25
4,GINS,≤ 0.25
5,DYPS,≤ 0.25
6,WIWN,≤ 0.25
7,TSTH,5.24
8,VVLL,3.27
9,LRER,≤ 0.25
10,YPST,≤ 0.25
11,HVPF,≤ 0.25
12,SHIQ,≤ 0.25
13,MMCC,≤ 0.25
14,FEVS,3.54
15,MTWF,11.8
16,NYRI,≤ 0.25
17,SSIY,4.01
18,NSCA,≤ 0.25
19,QSHC,1.36
20,QHDH,0.83
21,VMLN,≤ 0.25
22,KQAS,≤ 0.25
23,YHHV,≤ 0.25
24,VILN,≤ 0.25
25,QTCK,≤ 0.25
26,VCMV,5.38

row,Variant,enrichment ratio
1,ENYR,≤ 0.25
2,NMDP,≤ 0.25
3,QSGF,6.78
4,DFER,≤ 0.25
5,DKNM,≤ 0.25
6,YKPR,≤ 0.25
7,IYES,≤ 0.25
8,KVLF,≤ 0.25
9,GRWA,≤ 0.25
10,LPQD,≤ 0.25
11,GNKY,≤ 0.25
12,HYDY,≤ 0.25
13,SPIE,≤ 0.25
14,VVIA,≤ 0.25
15,WGPF,≤ 0.25
16,DPGR,≤ 0.25
17,QHYK,≤ 0.25
18,KQWR,≤ 0.25
19,AEGW,≤ 0.25
20,ACAK,0.412
21,ACTS,5.78
22,YCID,≤ 0.25
23,LSKQ,≤ 0.25
24,STSA,8.82
25,SFAR,≤ 0.25
26,TFNI,≤ 0.25

row,Variant,enrichment ratio
1,ARWK,≤ 0.25
2,PWLR,≤ 0.25
3,PYWW,≤ 0.25
4,GVAY,≤ 0.25
5,NDRA,≤ 0.25
6,GSFG,≤ 0.25
7,LPHF,≤ 0.25
8,NDAQ,≤ 0.25
9,LHWQ,≤ 0.25
10,TITM,17.6
11,LIPR,≤ 0.25
12,NPML,≤ 0.25
13,EPLM,≤ 0.25
14,TVPA,≤ 0.25
15,SVHL,≤ 0.25
16,PNAM,≤ 0.25
17,DHTG,≤ 0.25
18,YFVV,≤ 0.25
19,TSGG,0.646
20,DCPI,≤ 0.25
21,GIRN,≤ 0.25
22,QVSI,≤ 0.25
23,VAAP,≤ 0.25
24,HWAK,≤ 0.25
25,RRMH,≤ 0.25
26,GPGS,≤ 0.25

row,Variant,enrichment ratio
1,HREL,≤ 0.25
2,KMDD,≤ 0.25
3,DQIR,≤ 0.25
4,LLEF,≤ 0.25
5,MYIM,≤ 0.25
6,KECH,≤ 0.25
7,STML,13.4
8,KYCC,≤ 0.25
9,TVTV,7.44
10,DTTE,≤ 0.25
11,VCWC,≤ 0.25
12,RDYN,≤ 0.25
13,HAGR,≤ 0.25
14,RQPK,≤ 0.25
15,YHLL,≤ 0.25
16,YTRA,≤ 0.25
17,LICG,≤ 0.25
18,DQWL,≤ 0.25
19,NNNW,≤ 0.25
20,ICMG,≤ 0.25
21,TIVL,≤ 0.25
22,MMTP,≤ 0.25
23,DNQC,≤ 0.25
